Measured values as given in PubChem BioAssay (NCI).
“And” between values parts separate entries of the source, which are not always exact repeats. Identical values can stand only once.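 Values below derive from 48-hour exposures of cells grown in 96-well plates, with endpoints linearly interpolated between the two concentrations bracketing the appropriate inhibition level. Here, GI50 denotes the concentration required for 50% inhibition of growth. TGI: total growth inhibition.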

Test system: NCI-H322M lung
Experiment: NCI anticancer screen, dose series, 48 h

## COc1ccc(-c2n[nH]nc2-c2cc(OC)c3c(c2OC)OCO3)cc1
  GI50: 3.91 µM
  TGI: > 93 µM

## COc1c2c(cc3oc(C)cc(=O)c13)OC(=N)C(C(N)=O)C2CC(=O)c1ccc(N)cc1 (stereo not drawn)
  TGI: > 100 µM

## CN(C)c1ccc(C=C2C(=O)OC(C)(C)OC2=O)cc1Br
  TGI: > 100 µM

## O=C(c1ccccc1)c1ccc(COc2ccc(C(c3c(O)c4ccccc4oc3=O)c3c(O)c4ccccc4oc3=O)cc2)cc1
  TGI: 34.2 µM

## C/C=C/[P+](c1ccccc1)(c1ccccc1)c1ccccc1
  TGI: 24.2 µM

## C=Cc1c(C)c(OC)cc2c1Oc1ccc(OC)c(C)c1CC2
  TGI: > 100 µM

## Cc1ccc(C(=O)Nc2ccc(CN3CCN(C)CC3)c(C(F)(F)F)c2)cc1C#Cc1cnc2cccnn12
  GI50: 0.496 µM and 0.978 µM
  TGI: 1.99 µM and 3.91 µM

## CC12Nc3ccccc3N1C(=O)c1ccccc12 (stereo not drawn)
  TGI: > 100 µM

## CN(C)c1ccc(/C=N\NC(=O)CSCC(=O)N/N=C/c2ccc(N(C)C)cc2)cc1
  TGI: > 100 µM

## O=C1C(=O)N(c2ccc(Cl)c(Cl)c2)C(=O)C(=O)C1c1nc2ccccc2s1
  TGI: > 100 µM

## C=CC(=O)Nc1cccc(C)c1Nc1cc(-c2cccnc2Cc2c(C)c(OC)cc(OC)c2C)ncn1
  GI50: 12.2 µM
  TGI: 76.8 µM

## CC(CN1CCN(CCOCCO)CC1)CN1c2ccccc2Sc2ccc(Cl)cc21 (stereo not drawn)
  GI50: 3.71 µM
  TGI: 14.4 µM

## CCCCCCCSc1nc2c(C(=O)OCC)ncn2c2ccccc12
  TGI: > 100 µM

## N#Cc1c(N)oc(-c2cccc([N+](=O)[O-])c2)c1C#N
  TGI: > 100 µM

## C[C@@H]1CC[C@H]2C(COCCOCC3=C(C(F)(F)F)O[C@@H]4O[C@@]5(C)CC[C@H]6[C@H](C)CC[C@@H]3[C@@]46OO5)=C(C(F)(F)F)O[C@@H]3O[C@@]4(C)CC[C@@H]1[C@]32OO4
  GI50: > 90.8 µM
  TGI: > 100 µM

## N#C/C(=C\c1ccccc1)C(=O)Nc1nnc(-c2ccccc2)o1
  TGI: > 100 µM

## CCOC(=O)c1oc2ccc(OC)c3c2c1CCC3
  TGI: > 100 µM

## O=C(c1ccccc1)C(CN1CCOCC1)c1ccccc1 (stereo not drawn)
  GI50: 12.6 µM
  TGI: 30.9 µM

## N/C(=N\N=C\c1ccc(-c2ccccc2)cc1)N[N+](=O)[O-]
  GI50: 8.02 µM
  TGI: > 100 µM

## CCCC(=O)NC1=C(NCC)C(=O)c2ccccc2C1=O
  TGI: > 100 µM

## O=C(O[C@H]1[C@@H](O)[C@H](n2cnc3c(Cl)ncnc32)O[C@@H]1COC(c1ccccc1)(c1ccccc1)c1ccccc1)c1ccccc1
  TGI: 29.8 µM

## COC(=O)[C@@H]1CN(C(=O)CCc2ccccc2)C(=O)N1C(=O)OCc1ccccc1
  TGI: > 100 µM

## CCCCNCC(=O)O[C@]1(CC)C(=O)OCc2c1cc1n(c2=O)Cc2cc3ccccc3nc2-1
  TGI: 5.62 µM

## O=c1oc2ccccc2c(Nc2ccc3c(c2)S(=O)(=O)c2ccccc2O3)c1[N+](=O)[O-]
  TGI: > 100 µM

## COC(=O)C1=CSC2(S1)C(C(=O)OC)=CSc1c2ssc1=Nc1ccccc1 (stereo not drawn)
  TGI: 20.7 µM

## NC(N)=N/N=C/c1c(-c2ccccc2)nc2n1ccc1nc(-c3ccccc3)c(/C=N/N=C(N)N)n12
  TGI: 90 µM

## CCCCCCCCCCCC(=O)OCCOCCOCCOCCOCCOCc1ccc(OC)cc1
  TGI: > 100 µM

## CN(C)CCCN1c2ccccc2CCc2ccc(Cl)cc21
  GI50: 11.3 µM
  TGI: 23.9 µM

## C=CC(=O)N1CCN(c2ccc3cccc(NC(=O)c4cnc(C)cn4)c3n2)CC1
  GI50: 1.97 µM
  TGI: 76.3 µM

## CN(C)c1nc(=Nc2ccc3ccccc3c2)ss1
  TGI: > 100 µM

## Cn1c(/C=C(\O)c2ccc(Cl)cc2)nc2ccccc21
  TGI: > 100 µM

## CCOC(=O)/C(C(=S)Nc1ccccc1)=C(/N)N1CCCC1
  TGI: > 100 µM

## CC(=O)OCC(OC(C)=O)C(OC(C)=O)C(C=NN(C(C)=O)S(=O)(=O)c1ccc(/C=C2\NC(=O)NC2=O)cc1)OC(C)=O (stereo not drawn)
  TGI: > 100 µM

## CN1CCN(Cc2ccc(NC(=O)c3cncc(C#Cc4cnc(N)c5ccncc45)c3)cc2C(F)(F)F)CC1
  GI50: 0.631 µM
  TGI: 6.5 µM

## COc1ccc(C2=C(Cl)c3cc(OC)c(OC)cc3C2Cl)cc1OC (stereo not drawn)
  TGI: 43.4 µM

## CN(C)CCCNc1ccc2ncn3c4ccccc4c(=O)c1c23
  TGI: 33.8 µM

## CN(C)c1ccc2c(c1)Sc1cc(N(C)C)ccc1N2C(=O)c1ccccc1
  GI50: 30.5 µM
  TGI: > 100 µM

## CC1=C2C(=O)c3ccccc3C(=O)[C@H]2[C@H]2CCO[C@H]2O1
  TGI: > 100 µM

## Cc1c(C#N)c(=O)[nH]c(=O)n1CCN1CCN(C(=O)NCCCCCCNC(=O)N2CCN(CCn3c(C)c(C#N)c(=O)[nH]c3=O)CC2)CC1
  TGI: > 100 µM

## CCOC(=O)CSc1nc(-c2ccccc2)c(C#N)c(=O)[nH]1
  TGI: > 100 µM

## CC(C)(C)c1n[nH]c(=S)n(/N=C/c2ccc(F)c(Oc3ccccc3)c2)c1=O
  GI50: 22 µM
  TGI: 90.4 µM

## Cc1c2cc[n+](CCN3CCCCC3)cc2c(C)c2c1[nH]c1ccc(O)cc12
  GI50: 3.18 µM
  TGI: 32.7 µM and 25.9 µM

## O=C1c2ccccc2-c2c1c1ccc([N+](=O)[O-])cc1c(=O)n2CCCBr
  GI50: > 100 µM
  TGI: > 100 µM

## C=C1CC[C@@H]2[C@](C)(COC(C)=O)[C@@H](O)CC[C@@]2(C)[C@@H]1COc1ccc2ccc(=O)oc2c1
  GI50: > 100 µM
  TGI: > 100 µM

## O=S(=O)(Sc1ccc(Cl)cc1)c1ccc(Cl)cc1
  TGI: 91.5 µM

## Brc1cccc(C2SCc3nc4ccccc4n32)c1 (stereo not drawn)
  TGI: > 100 µM

## O=c1cc(-c2ccccc2)[nH]c2cc(O)ccc12
  TGI: > 100 µM

## C1=NCCNCCN=Cc2ccc(cc2)OCc2cccc(n2)COc2ccc1cc2
  TGI: > 100 µM
